Results on 62 molecules are retold here after PubChem BioAssay AID1508623 (National Center for Advancing Translational Sciences (NCATS), 2021).

Each structure is given as a SMILES string. The whole screen tested about 48,000 compounds, of which about 450 (0.94%) were called active. Another 19% or so got no clear call; they are omitted. Calls follow the shape of the dose curve; as a rule, active = well fitted inhibition curve with a large enough effect; inconclusive = small, poorly fitted or top-dose-only effect; inactive = no such curve, though single readings can be large or run the other way. Some of the results follow.

The test in a line: Primary qHTS for Identification of Small Molecule Inhibitors of Huntingtin Promoter Activity. Also: nearly all actives have a fitted effect of over 50% in size. As to conditions: HEK293 HTT promoter firefly luciferase reporter (activity 0% = vehicle and -100% = no light), 24 h; series mostly up to 57.5 µM; activity change, negative = inhibition: at the top concentration. The method in brief: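 Quantitative HTS used concentration series of up to 57.5 uM final on HEK293 luciferase reporter cells, 24 h at 37 degrees C. Readout was Dual-Glo firefly luminescence.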
With `Nc1nc(SCC(=O)Nc2cccc(C(F)(F)F)c2)n[nH]1`, the “activity change, negative = inhibition” value is inactive: -19.3%.

Regarding `CCOC(=O)c1c(-c2ccc(C)cc2)csc1NC(=O)c1cc(-c2ccc(Cl)cc2)on1`, the “activity change, negative = inhibition” value is inactive: -11.9%. As for `CS(=O)(=O)N(CC(=O)Nc1ccc(Br)cc1)c1ccccc1Br`, the figure is inactive: -20.6%; as for `CNC(=O)Cn1nc(-c2ccc(Cl)cc2)c2ccccc2c1=O`, inactive: -15.5% [at 11.5 µM].

On to `COc1ccc(NC(=O)CSC2=Nc3ccccc3C3=NC(CCC(=O)NCc4ccc(F)cc4)C(=O)N23)cc1Cl` (configuration not stated), for which the “activity change, negative = inhibition” value is inactive: -18.5%. As for `CCCCC(CC)CNC(=O)CN(C)S(=O)(=O)c1ccc2c(c1)c(=O)n(C)c(=O)n2C` (configuration not stated), the figure is inactive: -8.29%; as for `Cc1nn(C)c2c1c(-c1ccccc1)cc(=O)n2Cc1ccccc1Cl`, inactive: -0.216%. To `COc1cccc(N2CCN(C(=O)C3CCN(S(=O)(=O)c4cccc5nonc45)CC3)CC2)c1` belongs inactive: -20.7%; to `Cc1ccc(CN(C(=O)COc2ccc(Cl)cc2)c2ccccn2)o1`, inactive: -13.2%; to `Cc1cc(NC(=O)CCNS(=O)(=O)c2ccc3c(c2)CCCC(=O)N3)ccc1Br`, inactive: -28%. On to `COc1cccc(C(=O)Nc2cccc(NC(=O)c3ccc(Cl)cc3Cl)c2)c1`, for which the “activity change, negative = inhibition” value was inactive: 3.66%.

On to `CCCCN(C)C(=O)Cn1c(C2CC(=O)N(c3ccc(C)cc3)C2)nc2ccccc21` (configuration not stated), for which the “activity change, negative = inhibition” value is inactive: -7.71%.

On to `CCC(C)Nc1sc(S(=O)(=O)CC)nc1S(=O)(=O)c1ccc(C)cc1` (configuration not stated), for which the “activity change, negative = inhibition” value is inactive: -14.2%.

Take `CCOc1ccc(CNC(=O)CCCn2nc(C)c3sc4ccccc4c3c2=O)cc1`: the “activity change, negative = inhibition” value was inactive: -0.969%. `COC(=O)c1cc(S(=O)(=O)NCC2CCN(Cc3ccc(C)cc3)CC2)cn1C`: the “activity change, negative = inhibition” value is inactive: -15.2%. As for `CCCOc1ccc(-c2nn(-c3ccccc3)cc2C2NC(=O)NC(C)=C2C(=O)OC)cc1` (configuration not stated), the figure is inactive: -15.1%. As for `CCc1ccc(C(=O)c2cn(CC(=O)Nc3cc(OC)ccc3OC)c3ccc(C)cc3c2=O)cc1`, the figure is inactive: -13%. To `Cc1ccc(C)c(NC(=O)Cn2c(=O)nc(-c3ccccc3)c3ccccc32)c1` belongs inactive: -13.6%; to `O=C(Nc1ccc(N2CCN(c3ccc(F)cc3)CC2)c(C(=O)O)c1)c1ccccc1F`, inactive: 2.96%. With `COc1ccc(C)cc1NC(=O)C1CCN(S(=O)(=O)c2ccc3c(c2)CCCN3C(C)=O)CC1`, the “activity change, negative = inhibition” value is inactive: 14.4%. For the molecule `CC1=C(C(=O)Nc2cccnc2)C(c2ccccc2)n2nc(SCc3ccccc3Cl)nc2N1` (configuration not stated), the “activity change, negative = inhibition” value was inactive: -6.76%. With `CCOC(=O)c1ccc(NC(=O)CSc2nc3ccccc3c(=O)n2CCNC(C)=O)cc1`, the “activity change, negative = inhibition” value is inactive: -13.1%. To `CCc1ccc(NC(=O)CN2C(=O)C(c3ccc(F)cc3)=NC2(C)C)cc1` belongs inactive: -24.8%; to `Cc1ccc(CCNC(=O)Cn2ncc3c([nH]c4ccc(C)cc43)c2=O)cc1`, inactive: -0.0773%.

With `CCCCOc1ccc(Cn2c(=O)oc3ccc(C)cc32)cc1`, the “activity change, negative = inhibition” value is inactive: -26%. As for `CCCN(CCC)CCNC(=O)Cn1cc2c(n1)-c1c(oc(C(=O)N3CCCC3)c1C)CC2`, the figure is inactive: -4.46%; as for `O=C(CS(=O)(=O)c1cccc2nsnc12)Nc1ccc(F)cc1`, inactive: -4.12%. To `COC(=O)c1cc(S(=O)(=O)NCC2CCN(Cc3ccc(F)cc3)CC2)c[nH]1` belongs inactive: -25.6%; to `COCCNC(=O)CSc1nc2cc3c(cc2c(=O)n1CCCC(=O)NCc1ccc(OC)cc1)OCO3`, inactive: -19.4%. Take `COc1ccc(S(=O)(=O)N2CCN(c3ccc(Cl)c(Cl)c3)CC2)c2ccccc12`: the “activity change, negative = inhibition” value is inactive: -12.8%. To `COCCNC(=O)c1ccc2c(c1)N(Cc1cc(C)ccc1C)C(=O)c1ccccc1S2(=O)=O` belongs inactive: -12.4%; to `OCCNC1CCCc2c1[nH]c1ccc(-c3ccccc3)cc21` (configuration not stated), inactive: -8.7%. As for `Cc1cccc(NC(=O)c2cc(-c3ccc4c(c3)OCCO4)on2)c1`, the “activity change, negative = inhibition” value is inactive: -23.9%. As for `Cc1ccc(NC(=O)CSc2nc3ccccc3nc2Cc2ccccc2)c(C)c1`, the figure is inactive: -1.95%; as for `COc1ccc(S(=O)(=O)Nc2nnc(CC(C)C)s2)cc1`, inactive: -3.02%.

Take `CCOc1ccc(Cn2c(-c3ccc(OCC)c(OC)c3)nc3ccccc32)cc1OC`: the “activity change, negative = inhibition” value is inactive: 7.21%. To `CSc1ncc(C(=O)Nc2cccc(C)c2C)c(-c2ccccc2)n1` belongs inactive: -12.9%; to `COc1ccc(CNC(=O)C2CCN(S(=O)(=O)c3ccc(F)cc3)CC2)cc1`, inactive: -20%. As for `Cc1ccc(O)c2ncccc12`, the figure is inactive: 4.48%; as for `COC(=O)c1ccc2c(c1)N(Cc1cc(C)ccc1C)C(=O)c1ccccc1S2`, inactive: -20.6%; as for `CCN(c1ccccc1)S(=O)(=O)c1nnc(NC(=O)C(C)(C)C)s1`, inactive: -16.1%. With `CCN1CCc2nc3sc(C(=O)c4ccccc4)c(N)c3cc2C1`, the “activity change, negative = inhibition” value is inactive: -12.4%.

Regarding `CCOc1ccc2nc(N3CCCC(C(=O)NCCCOC)C3)sc2c1` (configuration not stated), the “activity change, negative = inhibition” value is inactive: -3.82%.

On to `COC(=O)c1ccc(Cn2c(SCc3ccccc3F)nc3ccncc32)cc1`, for which the “activity change, negative = inhibition” value is inactive: -8.65%. As for `CCOc1ccc(CCNC(=O)Cn2c(=O)c3cccn3c3ccc(F)cc32)cc1OCC`, the figure is inactive: 0.188%; as for `CC1C(=O)Nc2ccc(S(=O)(=O)NCc3ccc(N(C)C)cc3)cc2NC1=O` (configuration not stated), inactive: -1.48%; as for `COc1cccc(C(=O)c2cn(CC(=O)Nc3cccc(C(F)(F)F)c3)c3nc(C)ccc3c2=O)c1`, inactive: -24.5%. As for `CCN(CC)S(=O)(=O)c1ccc2c(c1)nc(CN(C)C(=O)Nc1cccc(Cl)c1)n2C`, the “activity change, negative = inhibition” value was inactive: -17.7%. To `COc1ccc(Cn2c(CCC(=O)Nc3ccc(C)c(C)c3)nc3cccnc32)cc1` belongs inactive: -24.3%; to `CCCN(CCC)C(=O)CN1C(=O)CSc2ccc(S(=O)(=O)N3CCC(C)CC3)cc21`, inactive: -28.5%; to `CC(=O)N1CCc2cc(S(=O)(=O)NC(CC(C)C)C(=O)NCCc3ccc(C)cc3)ccc21` (configuration not stated), inactive: -6.18%.

Consider `CCOc1ccc(C2c3[nH]c4ccccc4c3CCN2C(=O)Cc2cccc(OCC)c2OCC)cc1` (configuration not stated), for which the “activity change, negative = inhibition” value was inactive: -23.2%. To `Cc1ccccc1Cn1nnc2c(=O)[nH]c(C3CCN(C(=O)c4ccccc4)CC3)nc21` belongs inactive: -2.39%; to `Cc1cn([C@H]2C[C@H](F)[C@@H](CO)O2)c(=O)[nH]c1=O`, inactive: -4.41%.

Regarding `COc1ccc(-c2nc3sc(CCNC(=O)c4cccc(C(F)(F)F)c4)c(C)n3n2)cc1`, the “activity change, negative = inhibition” value was inactive: 35.6%. As for `CCOC(=O)c1c(S(=O)(=O)NCC(=O)Nc2ccc(C)c(Cl)c2)c(C)n(C)c1C`, the figure is inactive: -0.0508%; as for `O=C(C=Cc1ccc(O)cc1)c1ccc(O)cc1O`, inactive: -9.71%; as for `CSc1ncc(C(=O)NCc2ccccc2)c(-c2ccccc2)n1`, inactive: -5.59%. As for `COc1ccc(NC(=O)C2CCCN2S(=O)(=O)c2cccc3cccnc23)cc1OC` (configuration not stated), the figure is inactive: -10.3%; as for `CC(C)(C)n1cnc2cc(NCc3ccccc3Cl)ccc21`, inactive: 13%; as for `CC(C)Oc1ccc(CNC(=O)c2ccc(NC(=O)N3CCSc4ncccc43)cc2)cc1`, inactive: -35.6%. To `CN(C)c1ccc(CNC(=O)C2CCN(S(=O)(=O)c3ccc4c(ccn4C)c3)CC2)cc1` belongs inactive: -19.2%.
